Measurements from PubChem BioAssay AID1460 (National Center for Advancing Translational Sciences (NCATS), 2008).
Out of some 270,000 compounds screened, about 5,800 (2.1%) were called active. The shares of active, inactive and inconclusive entries below differ from those in the screen. Calls come from the whole dose curve; as a rule, active = well fitted inhibition curve with a large enough effect; inconclusive = small, poorly fitted or top-dose-only effect; inactive = flat fitted curve, though single readings scatter. Potencies of inconclusive entries are doubtful fits and often do not repeat.

These compounds were tested against Microtubule-associated protein tau (Homo sapiens) (UniProt P10636) (assay: qHTS for Inhibitors of Tau Fibril Formation, Thioflavin T Binding). Conditions: recombinant tau K18 P301L (four-repeat tau fragment), heparin-induced fibrillization, ThT fluorescence; series mostly up to 57.4 µM.
UniProt P10636, sequence (P10636 whole entry, looked up, the tested form may be a part): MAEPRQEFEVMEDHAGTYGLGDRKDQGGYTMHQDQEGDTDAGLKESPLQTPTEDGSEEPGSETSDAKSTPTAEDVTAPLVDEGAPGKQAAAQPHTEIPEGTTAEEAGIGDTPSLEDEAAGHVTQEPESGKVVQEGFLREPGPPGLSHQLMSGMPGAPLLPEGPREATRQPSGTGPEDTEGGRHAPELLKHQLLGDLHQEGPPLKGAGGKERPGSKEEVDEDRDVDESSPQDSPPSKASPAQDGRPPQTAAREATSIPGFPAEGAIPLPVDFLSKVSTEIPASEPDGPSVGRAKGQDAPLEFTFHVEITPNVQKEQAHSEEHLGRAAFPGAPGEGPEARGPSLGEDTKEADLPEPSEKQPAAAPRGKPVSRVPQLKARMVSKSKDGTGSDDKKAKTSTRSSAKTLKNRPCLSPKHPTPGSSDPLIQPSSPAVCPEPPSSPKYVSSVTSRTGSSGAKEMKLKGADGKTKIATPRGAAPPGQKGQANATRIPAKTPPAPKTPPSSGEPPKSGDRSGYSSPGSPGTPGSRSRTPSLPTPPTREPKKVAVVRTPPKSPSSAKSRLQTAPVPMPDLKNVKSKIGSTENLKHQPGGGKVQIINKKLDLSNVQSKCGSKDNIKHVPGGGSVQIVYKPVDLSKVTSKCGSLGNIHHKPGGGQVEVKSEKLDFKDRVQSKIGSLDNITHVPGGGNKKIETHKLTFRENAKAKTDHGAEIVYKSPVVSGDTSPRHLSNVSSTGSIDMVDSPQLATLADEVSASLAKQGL
How it was run: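 Aggregation was driven by heparin (20 uM final) acting on recombinant tau […] bearing P301L in 100 mM sodium acetate pH 7; fibrils were detected with Thioflavin T.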
% is set by controls: 0 for no effect and ±100 for the full control effect; potency is the fitted concentration of half-maximal effect; tags give direction and shape of the fitted curve.
Note: nearly all actives have a fitted effect of over 55% in size.

With `CCc1ccc(C2C(C#N)=C(N)SC(N)=C2C#N)s1` as the compound, how does the Potency read?
The Potency was active: 14.1 µM.

`CCOc1ccccc1C(=O)NCc1ccc2c(c1)CCN2C(=O)c1ccccc1` was tested. Which Potency did it give?
Its Potency is inconclusive: 25.1 µM [inhibitor, single point].

With `Cc1cc(C)c2oc(-c3cccc(NC(=O)COc4ccccc4Cl)c3C)nc2c1` as the compound, how does the Potency read?
The Potency was inconclusive: 4.47 µM [inhibitor, partial curve].

`CCc1ccc(N/C(SCc2ccccc2C)=C(/C#N)C(=O)NCc2ccco2)cc1` was tested. Which Potency did it give?
Its Potency is “inactive”.

With `O=[N+]([O-])c1ccccc1/C=C/C=N/n1c(-c2ccccc2)n[nH]c1=S` as the compound, how does the Potency read?
Its Potency is inconclusive: 14.1 µM [inhibitor, partial curve].

`O=S(=O)(c1ccc(F)cc1)c1snnc1-c1ccccc1` was tested. Which Potency did it give?
Its Potency is inconclusive: 39.8 µM [inhibitor, single point].

For `CCC(C)C(=O)Nc1nc(C)c(-c2csc(Nc3cc(Cl)ccc3OC)n2)s1` (stereo not drawn), which Potency is on record?
The Potency was inconclusive: 15.8 µM [inhibitor, partial curve].

For `CCOC(=O)c1sc(=NC(=O)c2ccc(C)c(C)c2)n(C)c1C`, which Potency is on record?
The Potency was “inactive”.

With `Cc1ccc(Nc2nnc(SCc3cc(=O)n4cc(C)ccc4n3)s2)cc1` as the compound, how does the Potency read?
The Potency was inconclusive: 3.98 µM [inhibitor, single point].

With `CCOC(=O)c1c(C)[nH]c(C(=O)Nc2ccc(C)c(Cl)c2)c1C` as the compound, how does the Potency read?
Its Potency is inconclusive: 2.82 µM [inhibitor, single point].

For `COc1ccc(-n2c(C)c(C(=O)O)c3cc(OC)c4ccccc4c32)cc1`, which Potency is on record?
The Potency was inconclusive: 17.8 µM [inhibitor, partial curve].

With `CCOc1ccccc1NC(=O)CCc1c(C)nc2cc(-c3ccccc3)nn2c1C` as the compound, how does the Potency read?
Its Potency is inconclusive: 22.4 µM [inhibitor, partial curve].

With `COc1cc(/C=C2\S/C(=N/S(=O)(=O)c3ccc(C)cc3)NC2=O)c([N+](=O)[O-])cc1OC` as the compound, how does the Potency read?
The Potency was active: 14.1 µM.

How did the Potency turn out when `CCOC(=O)N1CCN(C(=O)CSCC(=O)Nc2nc(-c3ccc(Cl)s3)cs2)CC1` was run?
The Potency was inconclusive: 1.78 µM [inhibitor, full curve].

`CCCNC(=O)OC[C@H]1O[C@@H](CCO/N=C\[C@@H](NS(=O)(=O)c2ccc(C)cc2)[C@H](C)/C=C\CC(=O)OC)C=C[C@@H]1Oc1ccc(OC)cc1` was tested. Which activity, negative = inhibition did it give?
The activity, negative = inhibition was inactive: -2.83% [at 11.5 µM].

For `Cn1c(=O)cc(SCC(=O)NCCCN2CCOCC2)c2ccccc21`, which Potency is on record?
Its Potency is inconclusive: 28.2 µM [inhibitor, partial curve].

`Cc1ccc(NC(=S)NCc2cccn2C)cc1` was tested. Which Potency did it give?
Its Potency is “inactive”.

How did the Potency turn out when `Cc1ccc(C(=O)N/C(=C\c2ccc(-c3ccc(Cl)cc3)o2)C(=O)NCCCN(C)C)cc1` was run?
The Potency was inconclusive: 35.5 µM [inhibitor, partial curve].

Which Potency does the source give for `CC(C)(C)N=C1SCC(C)(/C=N/O)S1` (stereo not drawn) here?
Its Potency is active: 25.1 µM.

For `CC1CCN(C(=S)NC(=O)c2cccs2)CC1`, which Potency is on record?
Its Potency is “inactive”.

Which Potency does the source give for `COc1ccc(/C=C/C(=O)O)cc1` here?
The Potency was “inactive”.

With `CCOC(=O)c1cnc2ccc(C)cc2c1Sc1ccccc1C(=O)OC` as the compound, how does the Potency read?
The Potency was inconclusive: 20 µM [inhibitor, partial curve].

Which Potency does the source give for `O=C(NCC1CCCO1)C1CCC(CNS(=O)(=O)c2ccccc2)CC1` (stereo not drawn) here?
The Potency was “inactive”.

Which Potency does the source give for `Cc1nc2ccc(NC(=S)NC3CCCCC3)cc2nc1C` here?
The Potency was inconclusive: 11.2 µM [inhibitor, partial curve].

Which Potency does the source give for `COc1ccc(NC(=O)CN2CCN(CC(=O)Nc3ccccc3Cl)CC2)cc1Cl` here?
Its Potency is “inactive”.

How did the Potency turn out when `CC(C(=O)Nc1ccccc1)n1nnc2sc3c(c2c1=O)CCCC3` (stereo not drawn) was run?
The Potency was inconclusive: 17.8 µM [inhibitor, partial curve].

With `CCOc1ccc2nc(N3CCCC(C(=O)NCCc4ccc(C)cc4)C3)sc2c1` (stereo not drawn) as the compound, how does the Potency read?
The Potency was inconclusive: 11.2 µM [inhibitor, partial curve].

Which Potency does the source give for `COc1ccc(N(CC(=O)NCCC2=CCCCC2)S(=O)(=O)c2ccc(C)cc2)cc1` here?
Its Potency is “inactive”.

Which Potency does the source give for `COc1ccc(-n2nnnc2-c2nc3ccccc3s2)cc1` here?
The Potency was inconclusive: 25.1 µM [inhibitor, partial curve].

Which Potency does the source give for `Cc1ccccc1C(=O)Nc1ccccc1-c1nc(-c2ccccc2)no1` here?
Its Potency is inconclusive: 5.62 µM [inhibitor, partial curve, poor fit].

Which Potency does the source give for `Cc1nc(-c2cccc(F)c2)sc1CCNC(=O)C(=O)Nc1ccc2c(c1)OCCO2` here?
Its Potency is inconclusive: 0.501 µM [inhibitor, full curve].

For `Cc1ccc(-c2nn(-c3ccccc3)cc2C(=O)O)o1`, which Potency is on record?
Its Potency is inconclusive: 20 µM [inhibitor, partial curve].

Which Potency does the source give for `COc1ccc2c(c1)C(c1ccccc1OC)CC(=O)O2` (stereo not drawn) here?
The Potency was inconclusive: 35.5 µM [inhibitor, partial curve].

How did the Potency turn out when `O=C(CCc1nc(-c2cccs2)no1)Nc1ccc([N+](=O)[O-])cc1` was run?
Its Potency is inconclusive: 14.1 µM [inhibitor, single point].

For `O=C(N/N=C/c1ccc([N+](=O)[O-])s1)c1ccncc1`, which Potency is on record?
The Potency was inconclusive: 15.8 µM [inhibitor, partial curve].

Which Potency does the source give for `CC(C)c1[nH]nc2c1C(c1cccs1)C(C#N)=C(N)O2` (stereo not drawn) here?
Its Potency is inconclusive: 39.8 µM [inhibitor, single point].

Which Potency does the source give for `NC(=O)CC(NC(=O)Cc1cccc2ccccc12)c1ccc(NCc2ccc(F)cc2)c([N+](=O)[O-])c1` (stereo not drawn) here?
Its Potency is inconclusive: 28.2 µM [inhibitor, partial curve].

With `Cc1cccc(NC(=O)COc2ccc3oc4c(c3c2)CCCC4)c1` as the compound, how does the Potency read?
Its Potency is inconclusive: 2 µM [inhibitor, full curve].

With `Cc1noc(NS(=O)(=O)c2ccc(NC(=O)C34CC5CC(C3)CC(n3cnc(Cl)n3)(C5)C4)cc2)c1C` as the compound, how does the Potency read?
Its Potency is “inactive”.

How did the Potency turn out when `Cc1ccc2[nH]c(=O)c(CN(Cc3cccs3)S(=O)(=O)c3ccc4c(c3)OCCO4)cc2c1` was run?
The Potency was “inactive”.

For `COc1ccc(/C(C)=N/NC(=O)c2cc(-c3cccnc3)nc3ccccc23)cc1`, which Potency is on record?
Its Potency is “inactive”.

For `Cc1ccc(-n2cnc3cc(C(=O)NCCC4=CCCCC4)ccc32)cc1Cl`, which Potency is on record?
The Potency was inconclusive: 2.82 µM [inhibitor, full curve, poor fit].

For `CC(C)(C)[C@H]1C=C(C(=O)N2CCN(Cc3ccccc3)CC2)O[C@@H](OCCCCO)C1`, which Potency is on record?
Its Potency is inconclusive: 35.5 µM [inhibitor, single point].
